Data reported in patent US20100310561A1, “NATRIURETIC FUSION PROTEINS” (BOEHRINGER INGELHEIM INTERNATIONAL GMBH, priority 2007, published 2010).

B1: ANPXY-L6-Fc1AB (protein)
chain: SLRRSSCFGGRMDRIGAQSGLGCNSFRYGGSGGSGGSGGSGGSGGSGG[not shown - human IgG1 Fc]
modifications: Synthesized ANPxy-L6-Fc1ab (protein)
B2: ANPXY-L4-Fc1AB (protein)
chain: SLRRSSCFGGRMDRIGAQSGLGCNSFRYGGSGGSGGSGG[not shown - human IgG1 Fc]
modifications: Synthesized ANPxy-L4-Fc1ab (protein)

Experiment: Single-dose rat PK study of recombinant ANP-Fc fusions, i.v. or s.c.
Type: in vivo
Details: 1 mg/kg, Sprague Dawley rats

Row | Molecule | half-life (T½) (intravenous bolus) [h] | mean resonance time (MRT) (intravenous bolus) [h] | volume of distribution (Vss) (intravenous bolus) [L/kg] | area under the curve (AUC) (subcutaneous) [ng·h/mL] | half-life (T½) (subcutaneous) [h] | maximum serum concentration obtained (Cmax) (subcutaneous) [ng/mL] | percent bioavailability (% F) (subcutaneous) [%]
1 | B1 | 11.5 | 1.94 | 0.27 | 2521 | 20.3 | 71.1 | 17.3
2 | B2 | 12.3 | 2.94 | 0.49 | 2680 | 18.2 | 70.8 | 22.2
